Values joined by “and” are separate entries in the source; they are usually repeats but may differ in a detail not shown here. Identical values can stand only once. This list was built around the results that the source calls inconclusive (neither active nor inactive); the mix of calls is not that of the screen. For some of these results: Where the call is inconclusive, the potency comes from a doubtful curve fit. Active and inactive are the calls of the source. Unless noted, calls come from the whole dose curve; as a rule, active = well fitted curve in the direction sought with a large enough effect; inconclusive = small, poorly fitted or top-dose-only effect, or another doubt; inactive = no such curve, though single readings can be large; an effect the other way counts as inactive or inconclusive.
How the values were obtained:
[1] = Vero cells viability qHTS for Zika virus inhibitors (AID 1347167); conditions: cytotoxicity counter-screen (Zika); series mostly up to 45.9 µM; note: potency is the fitted concentration of half-maximal effect
In short: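 Compounds were tested in concentration series on cells grown in DMEM containing 4% FBS. After 24 to 48 hours, cellular ATP was measured by luminescence with CellTiter Glo.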

[2] = Quantitative High-Throughput drug screen in 47 multiple myeloma cell lines against the NCATS MIPE library collection: U266_ATCC cell viability assay (AID 1919864); conditions: U266 myeloma viability, CellTiter-Glo ATP luminescence, 48 h; series mostly up to 45.8 µM; note: potency is the fitted concentration of half-maximal effect; nearly all actives have a fitted effect of over 35% in size
In short: (§1)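 Inhibition of viability over 48 h was scored by ATP content (CellTiter-Glo) in 500-cell wells. Zero and full viability were defined by media-only and DMSO-only wells.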

[3] = Quantitative High-Throughput drug screen in 47 multiple myeloma cell lines against the NCATS MIPE library collection: KMS11_JCRBsus cell viability assay (AID 1919873); conditions: KMS11 myeloma viability, CellTiter-Glo ATP luminescence, 48 h; series mostly up to 45.8 µM; note: potency is the fitted concentration of half-maximal effect; nearly all actives have a fitted effect of over 50% in size
In short: as §1

[4] = Quantitative High-Throughput drug screen in 47 multiple myeloma cell lines against the NCATS MIPE library collection: FR4_PLB cell viability assay (AID 1918924; note: potency is the fitted concentration of half-maximal effect; nearly all actives have a fitted effect of over 35% in size); conditions: FR4_PLB myeloma cells viability, CellTiter-Glo ATP, 48 h; series mostly up to 45.8 µM
In short: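 Luminescent ATP measurement with CellTiter-Glo gives viability, scaled between DMSO-only wells (100%) and media-only wells (0%). Cells, 500 per well, faced library compounds for 48 hours at 37C.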

[5] = NCATS anti-infectives library activity on the primary C. elegans qHTS viability assay (AID 1745855; calls by dose curve); conditions: C. elegans worm area imaging, day 7; series mostly up to 41.8 µM
In short: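 Viability read-out is GFP fluorescence of PE254-GFP-FLuc C. elegans, measured by laser cytometry (488 nm) at day 0, 3 and 7. Ten L1 worms per well were incubated 7 days at 21 °C with compounds and bacterial capsules in S medium.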

[6] = qHTS of pediatric cancer cell lines to identify multiple opportunities for drug repurposing: Confirmatory screen for Rh41 cells (AID 1347123); conditions: Rh41 rhabdomyosarcoma cells, viability/cytotoxicity qHTS; series mostly up to 45.9 µM;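 note: potency is the fitted concentration of half-maximal effect; 48 h compound exposure; nearly all actives have a fitted effect of over 60% in size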
In short: (§2)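 Cells (500-1,000/well) rested 5 h, then received compounds for 48 h; metabolically active cells were measured by CellTiter-Glo luminescence. Final concentrations spanned up to 46 µM (MIPE, 11-point) or 0.59 nM-46 µM (NPC, 8-point) in primary screens, 11-point in follow-ups.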

[7] = qHTS of pediatric cancer cell lines to identify multiple opportunities for drug repurposing: Confirmatory screen for BT-37 cells (AID 1347117); conditions: BT-37 pediatric cancer cells, viability; series mostly up to 45.9 µM;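 note: potency is the fitted concentration of half-maximal effect; viability measured after 48 h of compound exposure; nearly all actives have a fitted effect of over 55% in size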
In short: as §2

[8] = Quantitative High-Throughput drug screen in 47 multiple myeloma cell lines against the NCATS MIPE library collection: KMM1_JCRB cell viability assay (AID 1918960); conditions: KMM1 myeloma viability, CellTiter-Glo ATP luminescence, 48 h; series mostly up to 45.8 µM; note: potency is the fitted concentration of half-maximal effect; nearly all actives have a fitted effect of over 30% in size
In short: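 ATP readout (CellTiter-Glo), 48 h drug incubation, 37 °C/5% CO2, 500 cells per well; normalisation to DMSO (100%) and media-only (0%) controls.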

[9] = target: Nuclear receptor subfamily 1 group I member 3 (Homo sapiens) (UniProt Q14994); assay: Primary qHTS for agonist of constitutive androstane receptor (CAR) against the NCATS DSHEA and TCM libraries (AID 1794839); conditions: CAR agonist reporter cells, qHTS luminescence; CAR antagonist co-added at 0.75 µM; note: potency is the fitted concentration of half-maximal effect
Chain of UniProt Q14994 (Q14994 whole entry, looked up): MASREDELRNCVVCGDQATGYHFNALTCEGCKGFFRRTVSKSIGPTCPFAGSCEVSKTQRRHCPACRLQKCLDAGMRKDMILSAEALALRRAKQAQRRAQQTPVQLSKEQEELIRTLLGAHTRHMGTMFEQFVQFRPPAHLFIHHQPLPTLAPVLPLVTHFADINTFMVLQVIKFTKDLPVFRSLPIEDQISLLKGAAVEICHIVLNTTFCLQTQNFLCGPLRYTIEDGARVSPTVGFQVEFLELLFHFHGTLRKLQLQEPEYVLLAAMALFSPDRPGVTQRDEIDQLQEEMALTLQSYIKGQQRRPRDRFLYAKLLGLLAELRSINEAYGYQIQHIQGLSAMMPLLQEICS
In short: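 HepG2-CYP2B6-hCAR cells (2,500/well) were attached for 5 h, then treated for 24 h at 37 °C with compounds plus 0.75 µM PK11195. Luciferase luminescence (ONE-Glo) was read, with CellTiter-Fluor viability (Ex/Em 405/540 nm).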

[10] = AP1 Signaling Pathway (AID 357; active = well fitted curve in either direction with a large enough effect, not every such curve was filed as active; inconclusive = small, poorly fitted or top-dose-only effect, or another doubt;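 note: ME-180 reporter cells stimulated with EGF at its EC50 level; top concentration of the series differs between compounds; % is set by controls: 0 for no effect and ±100 for the full control effect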); conditions: ME-180 AP-1-bla reporter, EGF-induced, beta-lactamase ratio, 5 h
In short: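 AP-1-bla ME-180 cells, Opti-MEM + 0.5% dialyzed FBS, plated overnight 37 °C. Cpd titration + EC50 EGF, 5 h 37 °C. CCF4 2.5 h RT; ex 405, em 460/530 ratio → %activity, AC50.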

[11] = Stat Signaling Pathway (AID 446; active = well fitted curve in either direction with a large enough effect, not every such curve was filed as active; inconclusive = small, poorly fitted or top-dose-only effect, or another doubt;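 note: ME-180 cervical cancer cells given 40 pM IL-6 alongside compound; SIE-controlled beta-lactamase reporter measured as 460/530 nm FRET emission ratio; top concentration of the series differs between compounds; % is set by controls: 0 for no effect and ±100 for the full control effect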); conditions: ME-180 SIE beta-lactamase reporter, IL-6 stimulated, 5 h; at 38 µM (top of the series)
In short: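 Reporter line: ME-180 cervical carcinoma, SIE-beta-lactamase. Treatment: compound with 40 pM IL-6, 5 hrs, 37 C, in low-serum OPTI-MEM with 10 mM HEPES pH 7.3. Detection: 460/530 nm fluorescence.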

[12] = qHTS Assay for Identification of Small Molecule Agonists for Thrombopoietin (TPO) Signaling Pathway (AID 917); conditions: TPO signaling pathway reporter cells, agonist qHTS, stimulated with TPO at its EC50; series mostly up to 38.5 µM; note: potency is the fitted concentration of half-maximal effect
In short: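 Murine Ba/F3 cells stably expressing human TPO receptor and a Glycoprotein IIb promoter–luciferase reporter were IL-3-starved overnight, then treated with compounds plus TPO (26 pM final, its EC50) for 24 hrs at 37 C; luminescence was read.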

[13] = S16 Schwann cell PMP22 intronic element firefly luciferase assay (AID 624032); conditions: S16 rat Schwann cells, PMP22 element FLuc, 24 h; series mostly up to 57.5 µM; note: nearly all actives have a fitted effect of over 30% in size; note: potency is the fitted concentration of half-maximal effect;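 for activity change, negative = inhibition: plate controls were DMSO for no effect and PTC124 positive control mean for full effect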
In short: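 Luciferase reporter of PMP22 intronic-element expression in stably transfected S16 rat Schwann cells, read by ONE-Glo luminescence after 24 h compound exposure at 37 C. Activity scaled between DMSO (0%) and positive-control PTC124; concentration-effect curves quality-classified.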

[14] = qHTS for differential inhibitors of proliferation of Plasmodium falciparum line Dd2 (AID 1882); conditions: Potency: Plasmodium falciparum Dd2 proliferation inhibition; series mostly up to 28.7 µM; note: potency is the fitted concentration of half-maximal effect; nearly all actives have a fitted effect of over 65% in size
In short: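 Dd2-infected erythrocytes (0.3% parasitemia, 2.5% hematocrit final) incubated with compound 72 h at 37 C, 5% CO2; lysed with saponin/Triton buffer containing SYBR Green I, incubated overnight in the dark, then read by fluorescence (485/535 nm). Normalized to 0.29 uM artemisinin and DMSO.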

[15] = Cytometry Cell-Based qHTS for Inhibitors of the mTORC1 Signaling Pathway in MEF cells (AID 2668); conditions: mTORC1 pathway readout; series mostly up to 38.3 µM; note: potency is the fitted concentration of half-maximal effect
In short: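 WT MEFs (Tsc2-/-, p53-/- stably re-expressing WT Tsc2) in DMEM + 10% FBS received compounds 24 hrs after plating, for 24 hrs at 37 degree Celsius. Fixed cells stained with Alexa-488 anti-phospho-rpS6 Ser235/236 and propidium iodide; laser-scanning cytometry read-out.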

[16] = Validation screen for small molecules that induce DNA re-replication in MCF 10A normal breast cells (AID 463097); conditions: MCF 10A cells, DNA re-replication phenotype imaging; series mostly up to 46.1 µM; note: potency is the fitted concentration of half-maximal effect; nearly all actives have a fitted effect of over 60% in size
In short: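 Readout: Hoechst nuclear fluorescence intensity, 405 ex / 500-530 em, by scanning plate imager; re-replication scored as increase in nuclei with elevated DNA content. Cells exposed to compound 48 hr, 37 C, 5% CO2 beforehand.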

[17] = Quantitative high throughput screen for delayed death inhibitors of the malarial parasite plastid, 96 hour incubation (AID 488745); conditions: Plasmodium falciparum growth; series mostly up to 28.7 µM; note: potency is the fitted concentration of half-maximal effect; nearly all actives have a fitted effect of over 70% in size
In short: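 Luciferase-expressing P. falciparum in erythrocytes (2% hematocrit, 0.1% parasitemia) incubated with compound for 96 h at 37 C, 5% CO2, in RPMI 1640 with 0.5% Albumax. Growth inhibition read as decreased luminescence.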

[18] = target: ATPase family AAA domain-containing protein 5 (Homo sapiens) (UniProt Q96QE3); assay: Validation screen for small molecules that inhibit ELG1-dependent DNA repair in human embryonic kidney (HEK293T) cells expressing luciferase-tagged ELG1 (AID 493107); conditions: HEK293T ELG1-luciferase level, luminescence, 5-fluorouridine co-treatment, 16 h; series mostly up to 46.1 µM; note: potency is the fitted concentration of half-maximal effect; nearly all actives have a fitted effect of over 70% in size
Chain of UniProt Q96QE3 (Q96QE3 whole entry, looked up, the tested form may be a part): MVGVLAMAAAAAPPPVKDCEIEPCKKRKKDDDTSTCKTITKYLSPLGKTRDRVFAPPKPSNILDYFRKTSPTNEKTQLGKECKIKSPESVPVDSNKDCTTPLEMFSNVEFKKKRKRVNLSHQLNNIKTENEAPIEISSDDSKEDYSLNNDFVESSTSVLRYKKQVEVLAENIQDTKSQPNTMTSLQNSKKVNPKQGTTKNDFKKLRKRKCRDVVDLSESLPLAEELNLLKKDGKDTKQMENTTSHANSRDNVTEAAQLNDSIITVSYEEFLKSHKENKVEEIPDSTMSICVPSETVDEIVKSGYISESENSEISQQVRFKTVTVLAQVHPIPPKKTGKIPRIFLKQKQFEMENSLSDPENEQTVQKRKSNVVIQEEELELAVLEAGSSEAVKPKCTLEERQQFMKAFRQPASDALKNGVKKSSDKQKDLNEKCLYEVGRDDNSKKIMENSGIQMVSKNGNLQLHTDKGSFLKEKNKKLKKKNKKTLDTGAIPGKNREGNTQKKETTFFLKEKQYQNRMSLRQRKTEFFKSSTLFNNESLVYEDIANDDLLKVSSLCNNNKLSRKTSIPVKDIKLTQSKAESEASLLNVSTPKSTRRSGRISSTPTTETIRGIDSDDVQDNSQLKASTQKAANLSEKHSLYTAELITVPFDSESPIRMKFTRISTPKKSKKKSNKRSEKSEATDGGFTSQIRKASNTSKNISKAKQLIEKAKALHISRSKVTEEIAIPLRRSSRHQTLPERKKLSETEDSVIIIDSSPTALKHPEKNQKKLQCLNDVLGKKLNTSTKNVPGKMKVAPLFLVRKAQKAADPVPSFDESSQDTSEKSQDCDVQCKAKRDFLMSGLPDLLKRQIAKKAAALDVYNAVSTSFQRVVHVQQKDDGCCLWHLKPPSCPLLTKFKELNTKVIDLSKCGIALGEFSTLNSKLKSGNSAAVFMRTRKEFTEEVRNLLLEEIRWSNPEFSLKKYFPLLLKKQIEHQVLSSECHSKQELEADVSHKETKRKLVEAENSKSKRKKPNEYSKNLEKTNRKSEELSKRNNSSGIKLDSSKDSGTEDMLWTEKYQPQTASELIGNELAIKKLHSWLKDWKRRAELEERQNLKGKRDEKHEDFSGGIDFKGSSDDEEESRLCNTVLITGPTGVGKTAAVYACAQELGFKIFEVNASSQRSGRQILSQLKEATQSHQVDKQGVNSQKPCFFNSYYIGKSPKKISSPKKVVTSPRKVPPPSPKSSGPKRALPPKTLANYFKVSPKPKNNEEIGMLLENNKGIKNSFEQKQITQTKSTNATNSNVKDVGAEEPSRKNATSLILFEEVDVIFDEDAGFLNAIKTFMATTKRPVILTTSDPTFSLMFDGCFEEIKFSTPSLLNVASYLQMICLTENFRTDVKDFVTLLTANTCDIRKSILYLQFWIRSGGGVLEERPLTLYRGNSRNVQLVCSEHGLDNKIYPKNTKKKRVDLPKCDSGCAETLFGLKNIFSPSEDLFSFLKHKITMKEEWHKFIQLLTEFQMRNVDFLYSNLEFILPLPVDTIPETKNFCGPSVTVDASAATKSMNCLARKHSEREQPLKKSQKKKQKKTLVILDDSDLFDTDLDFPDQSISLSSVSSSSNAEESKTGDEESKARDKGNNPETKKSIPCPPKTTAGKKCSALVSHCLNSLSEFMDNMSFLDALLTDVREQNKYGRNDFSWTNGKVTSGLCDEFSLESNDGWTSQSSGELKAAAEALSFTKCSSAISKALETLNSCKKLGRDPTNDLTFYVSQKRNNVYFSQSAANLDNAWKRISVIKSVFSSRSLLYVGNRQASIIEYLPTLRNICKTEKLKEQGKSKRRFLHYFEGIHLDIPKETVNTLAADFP
In short: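 HEK293T cells expressing luciferase-tagged ELG1, 2,000 per well, treated with 5-fluorouridine plus compound for 16 h at 37 C. ONE-Glo luminescence after 30 min at room temperature reports ELG1 reporter level.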

[19] = target: Rap guanine nucleotide exchange factor 4 (Homo sapiens) (UniProt Q8WZA2); assay: Confirmatory qHTS for agonist of cAMP-regulated guanine nucleotide exchange factor 4 (EPAC2) (AID 1645884); conditions: EPAC2 GEF activity, Rap1B-BODIPY-GDP fluorescence; series mostly up to 154 µM;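 note: nucleotide exchange releases bodipy-GDP from Rap1 and this lowers its fluorescence; potency is the fitted concentration of half-maximal effect; nearly all actives have a fitted effect of over 65% in size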
Chain of UniProt Q8WZA2 (Q8WZA2 whole entry, looked up): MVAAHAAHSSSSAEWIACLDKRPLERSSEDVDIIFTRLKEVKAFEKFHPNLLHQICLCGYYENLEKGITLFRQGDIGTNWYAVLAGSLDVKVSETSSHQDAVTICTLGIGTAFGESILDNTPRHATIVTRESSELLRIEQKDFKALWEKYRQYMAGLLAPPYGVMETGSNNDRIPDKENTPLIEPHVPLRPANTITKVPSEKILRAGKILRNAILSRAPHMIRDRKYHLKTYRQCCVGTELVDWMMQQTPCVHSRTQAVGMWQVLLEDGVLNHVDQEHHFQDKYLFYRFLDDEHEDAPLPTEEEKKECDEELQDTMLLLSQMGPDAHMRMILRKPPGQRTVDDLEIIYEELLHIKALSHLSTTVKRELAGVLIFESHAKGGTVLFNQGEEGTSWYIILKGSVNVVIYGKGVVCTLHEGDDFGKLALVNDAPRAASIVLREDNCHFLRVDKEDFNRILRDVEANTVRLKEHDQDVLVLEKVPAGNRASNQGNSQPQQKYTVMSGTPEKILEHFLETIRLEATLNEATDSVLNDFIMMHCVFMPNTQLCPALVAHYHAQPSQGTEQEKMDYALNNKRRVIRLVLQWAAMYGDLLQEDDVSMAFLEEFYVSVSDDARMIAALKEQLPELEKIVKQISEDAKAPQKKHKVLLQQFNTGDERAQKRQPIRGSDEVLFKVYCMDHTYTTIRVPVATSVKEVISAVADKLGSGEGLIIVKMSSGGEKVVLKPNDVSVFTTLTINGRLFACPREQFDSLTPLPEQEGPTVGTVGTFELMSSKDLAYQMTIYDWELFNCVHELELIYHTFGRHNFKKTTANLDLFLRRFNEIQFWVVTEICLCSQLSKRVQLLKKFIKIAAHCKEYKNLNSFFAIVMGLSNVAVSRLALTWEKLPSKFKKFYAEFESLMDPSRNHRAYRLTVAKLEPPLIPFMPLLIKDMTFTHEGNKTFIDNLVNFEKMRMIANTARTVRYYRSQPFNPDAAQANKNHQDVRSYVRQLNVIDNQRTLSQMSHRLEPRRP

[20] = target: Rap guanine nucleotide exchange factor 4 (Homo sapiens) (UniProt Q8WZA2); assay: Confirmatory qHTS for antagonist of cAMP-regulated guanine nucleotide exchange factor 4 (EPAC2) (AID 1645885); conditions: EPAC2 Rap1B-BODIPY-GDP exchange fluorescence, biochemical; note: potency is the fitted concentration of half-maximal effect; nearly all actives have a fitted effect of over 25% in size
Tags give direction and shape of the fitted curve.

CC(C)C[C@H](C(=O)O)c1cc(-c2ccc(C(F)(F)F)cc2)cc(-c2ccc(C(F)(F)F)cc2)c1
Potency [1]: inconclusive: 37 µM [cytotoxic, single point]

O=C(C=CC#Cc1cccc(NS(=O)(=O)c2ccccc2)c1)NO
Potency [2]: active: 2.09 µM
Potency [3]: active: 0.662 µM

CCOC(=O)[C@H](CCc1ccccc1)N[C@@H](C)C(=O)N1[C@@H](C(=O)O)C[C@H]2CCC[C@@H]21
Potency [4]: active: 18.7 µM

CCCc1ccc(OCC(=O)N(Cc2nc(-c3cccnc3)no2)C(C)C)cc1
Potency [5]: inactive

COc1cc(OC)c(C=CS(=O)(=O)Cc2ccc(OC)c(NCC(=O)O)c2)c(OC)c1
Potency [6]: active: 0.293 µM

Cc1cc(N2CCOCC2)cc2[nH]c(-c3c(NC[C@@H](O)c4cccc(Cl)c4)cc[nH]c3=O)nc12
Potency [7]: inconclusive: 16.5 µM [cytotoxic, partial curve]
Potency [8]: active: 0.0526 µM

CC(=O)C1=C(O)C=C2Oc3c(C(C)=O)c(O)c(C)c(O)c3[C@]2(C)C1=O
Potency [9]: inconclusive: 15.8 µM [activator, single point]

CN1CCC[C@@H]1CCO[C@](C)(c1ccccc1)c1ccc(Cl)cc1
activity change, negative = inhibition ([10]; at 38 µM (top of the series)): inconclusive: 37.6% [activator]
activity, negative = inhibition [11]: inconclusive: 30.1% [activator]
Potency [12]: inconclusive: 10 µM [inhibitor, partial curve]
Potency [13]: inactive

CN1CCN(CCCN2c3ccccc3Sc3ccc(C(F)(F)F)cc32)CC1
activity change, negative = inhibition ([10]; at 7.69 µM (top of the series)): inconclusive: 34.7% [activator]
activity, negative = inhibition [11]: inconclusive: -35.4% [inhibitor]
Potency [12]: inconclusive: 15.8 µM [inhibitor, partial curve]
Potency [14]: active: 12.6 µM
Potency [15]: inconclusive: 16.5 µM [falling, single point]
Potency [16]: inconclusive: 20 µM [activator, single point]
Potency [17]: inconclusive: 10.4 µM [inhibitor, single point]
Potency [18]: inconclusive: 20.6 µM [inhibitor, single point]
Potency [19]: inconclusive: 3.54 µM [activator, partial curve, poor fit]
Potency [20]: active: 24.8 µM and active: 44.1 µM

O=C(O)CSc1cc(NS(=O)(=O)c2ccc(Br)cc2)c2ccccc2c1O
Potency [19]: inconclusive: 126 µM [activator, partial curve, poor fit]
Potency [20]: active: 47.8 µM

CCOC(=O)C1=C(C)NC(C)=C(C(=O)OC)C1c1cccc(Cl)c1Cl (stereo unspecified)
Potency [14]: inconclusive: 10 µM [inhibitor, single point]
Potency [15]: inconclusive: 20.7 µM [falling, single point]
Potency [16]: active: 11.2 µM
Potency [17]: inconclusive: 8.28 µM [inhibitor, partial curve, poor fit]
Potency [18]: inconclusive: 25.9 µM [inhibitor, single point]
Potency [13]: inconclusive: 18.1 µM [inhibitor, partial curve]
